Data published in the BET-seq Pho4 binding data (Le et al. 2018).
This is one part of the list. Values were computed here from the reads of four pooled replicates and scatter widely.

target: T1, Pho4 (S. cerevisiae) (UniProt P07270); assay: relative binding free energy (BET-seq); higher = weaker binding; conditions: reference: library average
T1 sequence: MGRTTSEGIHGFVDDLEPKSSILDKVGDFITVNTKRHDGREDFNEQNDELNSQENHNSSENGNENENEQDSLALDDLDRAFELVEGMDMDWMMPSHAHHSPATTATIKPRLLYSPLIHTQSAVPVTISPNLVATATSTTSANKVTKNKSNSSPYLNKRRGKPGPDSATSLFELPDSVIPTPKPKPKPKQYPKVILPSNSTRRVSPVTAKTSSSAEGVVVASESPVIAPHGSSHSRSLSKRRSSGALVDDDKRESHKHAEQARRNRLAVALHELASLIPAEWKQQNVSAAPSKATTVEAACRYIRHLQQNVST

Sequence	relative binding free energy
ATATTCACGTGATTTG	0.35 kcal/mol
GGTGTCACGTGTGCTG	0.06 kcal/mol
GAATTCACGTGTAAGT	0.4 kcal/mol
GAATACACGTGGGGTA	-0.19 kcal/mol
TGTGGCACGTGAATTC	0.12 kcal/mol
GGATGCACGTGCGAAG	0.15 kcal/mol
GGCGTCACGTGGATTT	0.26 kcal/mol
AGTTCCACGTGCTTGG	0.18 kcal/mol
GATTTCACGTGGTTCA	0.32 kcal/mol
TAGTTCACGTGTATCT	0.24 kcal/mol
TTGCGCACGTGCCGGG	-0.27 kcal/mol
GTTGGCACGTGGCATG	-0.13 kcal/mol
TCTTGCACGTGGGGGG	-0.09 kcal/mol
GAGGACACGTGGTTAA	0.11 kcal/mol
GGGGACACGTGGCAGA	-0.03 kcal/mol
TGTGTCACGTGTGCTA	0.15 kcal/mol
TAGCACACGTGGGTGA	-0.09 kcal/mol
TATGTCACGTGTTAGC	0.11 kcal/mol
TTTTACACGTGTGCAA	0.06 kcal/mol
GACGTCACGTGGGGGT	0.01 kcal/mol
TGTTGCACGTGTATGG	0.08 kcal/mol
GGGGTCACGTGTCATT	0.11 kcal/mol
GTTTACACGTGGCTGA	0.09 kcal/mol
CAGGTCACGTGGAGGA	0.11 kcal/mol
GGATTCACGTGAGTAT	0.38 kcal/mol
GAAGGCACGTGTGTCG	-0.12 kcal/mol

Sequence	relative binding free energy
GGGAGCACGTGTGAGT	-0.03 kcal/mol
GGGTGCACGTGGTTAT	-0.06 kcal/mol
ATTTTCACGTGATGTA	0.4 kcal/mol
GGTGGCACGTGGCTAA	-0.25 kcal/mol
ATGTACACGTGTGCTT	0.04 kcal/mol
TAGTGCACGTGGGCTG	-0.13 kcal/mol
ATGAGCACGTGTGGAT	0.05 kcal/mol
AGACTCACGTGGTGGT	0.03 kcal/mol
GTTGTCACGTGGAAGA	0.06 kcal/mol
GTTCGCACGTGGGGAT	-0.06 kcal/mol
TTAAGCACGTGTTCAG	0.02 kcal/mol
TTTGGCACGTGGCGGT	-0.28 kcal/mol
ATTTACACGTGGTGTA	0.08 kcal/mol
TACGGCACGTGTCGTA	0.03 kcal/mol
GGGGACACGTGGTGCG	-0.03 kcal/mol
GGGGGCACGTGGCCCG	-0.21 kcal/mol
TGGGCCACGTGTCTGG	-0.07 kcal/mol
CGTATCACGTGATAGT	0.22 kcal/mol
ATGGTCACGTGGCTAT	-0.11 kcal/mol
TACTTCACGTGGTTAG	0.08 kcal/mol
ACAGGCACGTGGATGG	-0.11 kcal/mol
GAGCGCACGTGGTAGG	-0.06 kcal/mol
CTACGCACGTGTTGGG	0.07 kcal/mol
TGTCGCACGTGGGTGG	-0.23 kcal/mol
TGGTGCACGTGTCTCT	0.01 kcal/mol
AAGTGCACGTGTTGGT	-0.02 kcal/mol

Sequence	relative binding free energy
GTGAGCACGTGGGTCG	-0.07 kcal/mol
ATTATCACGTGGGAAT	0.14 kcal/mol
GGTCGCACGTGTGAGG	0 kcal/mol
TAATTCACGTGGGTGT	0.2 kcal/mol
AGAGACACGTGGGGTG	-0.15 kcal/mol
GGAGGCACGTGTGTCT	-0.13 kcal/mol
TGGGGCACGTGTTGAT	-0.14 kcal/mol
TTTAGCACGTGGGGCC	-0.02 kcal/mol
GGTGCCACGTGTTGTT	-0.13 kcal/mol
GTATGCACGTGGGCTG	-0.08 kcal/mol
GTAAGCACGTGCGGTA	-0.03 kcal/mol
AGCGGCACGTGAAAGG	0.08 kcal/mol
AGATTCACGTGGGGGA	0.12 kcal/mol
TATGACACGTGGTTTC	0.15 kcal/mol
TATGTCACGTGAGTGC	0.19 kcal/mol
TTTTTCACGTGCTTCA	0.18 kcal/mol
TAATGCACGTGGGTTG	-0.16 kcal/mol
GTTGGCACGTGGCGTA	-0.2 kcal/mol
GTGCGCACGTGTGGTA	0.02 kcal/mol
AAGCTCACGTGGGGGT	0.09 kcal/mol
AAGTACACGTGTTAGT	0.01 kcal/mol
TAAGGCACGTGGTAAA	-0.02 kcal/mol
GGGTCCACGTGAATTT	0.38 kcal/mol
ATAGGCACGTGCGGGA	-0.27 kcal/mol
GGTTGCACGTGACTTA	0.09 kcal/mol
GGACGCACGTGGTGAT	0.02 kcal/mol

Sequence	relative binding free energy
CTCTTCACGTGTGTTG	0.15 kcal/mol
AAGCGCACGTGGGGTA	-0.31 kcal/mol
CTTTGCACGTGTTCTG	-0.08 kcal/mol
CATTTCACGTGCGGGT	0.41 kcal/mol
CTCAGCACGTGGTGGG	-0.15 kcal/mol
GGGAACACGTGAATGG	0.33 kcal/mol
TGGTTCACGTGGAGGA	0.3 kcal/mol
CAGTTCACGTGTATAT	0.33 kcal/mol
AAATACACGTGGGTGT	-0.1 kcal/mol
GCTGGCACGTGTTTGA	-0.03 kcal/mol
CGGTTCACGTGGGACG	0.1 kcal/mol
GTACGCACGTGGTTGT	-0.11 kcal/mol
ATTCTCACGTGTCGGG	0.22 kcal/mol
AGTTGCACGTGTGCCG	0 kcal/mol
ACGTTCACGTGGAAGG	0.23 kcal/mol
TCGTGCACGTGCAGGT	-0.13 kcal/mol
ATGTTCACGTGGGCGC	0.19 kcal/mol
AGGGGCACGTGCGTAT	-0.11 kcal/mol
TGGCACACGTGGTTGT	-0.03 kcal/mol
TTTGGCACGTGTTCTA	-0.14 kcal/mol
AGTAGCACGTGGGAGG	-0.2 kcal/mol
ATGGCCACGTGGAGGG	-0.06 kcal/mol
AATCACACGTGGGTGG	-0.07 kcal/mol
GTATTCACGTGCGCGT	0.12 kcal/mol
TATCTCACGTGGGCGG	0.02 kcal/mol
TTTCGCACGTGGGAGA	-0.12 kcal/mol

Sequence	relative binding free energy
ATGTACACGTGTAGTT	0.03 kcal/mol
ATAGTCACGTGTGACG	0.16 kcal/mol
GTAAGCACGTGTTGGG	0.09 kcal/mol
TAGGGCACGTGAGCAG	-0.02 kcal/mol
TACAGCACGTGCGTGT	-0.06 kcal/mol
GATGTCACGTGGCTGT	0.18 kcal/mol
TGTCGCACGTGCTGGA	-0.07 kcal/mol
TGGTACACGTGGTAAG	0.04 kcal/mol
GTTTGCACGTGCAGAG	0.04 kcal/mol
ATGGACACGTGTTTGT	0.02 kcal/mol
AGATGCACGTGATGAA	0.25 kcal/mol
AATGTCACGTGTGTCG	0.05 kcal/mol
GTCGGCACGTGGGCGC	-0.14 kcal/mol
GGCTACACGTGTTTGG	0.13 kcal/mol
ATAGGCACGTGGAGCG	-0.29 kcal/mol
TTGGGCACGTGCGCTT	-0.2 kcal/mol
TAGGACACGTGATGAT	0.11 kcal/mol
CTGGTCACGTGGGGCC	-0.07 kcal/mol
AGTTCCACGTGGTTGT	-0.02 kcal/mol
CGAGGCACGTGTGTAG	-0.14 kcal/mol
GTGTACACGTGCGAGG	-0.18 kcal/mol
GGAGTCACGTGAAGAG	0.28 kcal/mol
GTGTTCACGTGATCGG	0.36 kcal/mol
CGTGGCACGTGTTTAT	-0.09 kcal/mol
CTTGTCACGTGTTTGC	0.06 kcal/mol
GGGGCCACGTGGCCGG	-0.32 kcal/mol

Sequence	relative binding free energy
TTGGTCACGTGGTCTG	0.1 kcal/mol
TCTAGCACGTGGATGG	-0.07 kcal/mol
TGATACACGTGGGGGC	-0.03 kcal/mol
GGAGACACGTGCGTGT	-0.02 kcal/mol
GGTAGCACGTGTGCAA	0.11 kcal/mol
GTAGTCACGTGGGTAT	-0.03 kcal/mol
GTGGCCACGTGTGTTT	0.2 kcal/mol
GGATTCACGTGTAAAG	0.21 kcal/mol
TAGGGCACGTGAATAT	0.06 kcal/mol
GTGAACACGTGGGTAT	0.03 kcal/mol
TAAGTCACGTGAGTTT	0.34 kcal/mol
GAAGTCACGTGCGGGG	0.12 kcal/mol
GTGGTCACGTGCTCGG	-0.01 kcal/mol
TCATGCACGTGATGTG	-0.01 kcal/mol
GCTGGCACGTGCGTGG	-0.19 kcal/mol
AATGACACGTGGGTGT	-0.01 kcal/mol
GATTGCACGTGATTGG	0.17 kcal/mol
CAAATCACGTGTGAGG	0.24 kcal/mol
TGGTACACGTGAAGTG	0.26 kcal/mol
CTGGTCACGTGAGATT	0.52 kcal/mol
TAAGGCACGTGAATAG	0.22 kcal/mol
CGTTGCACGTGATTAA	0.04 kcal/mol
GCTGTCACGTGAAGTG	0.19 kcal/mol
AGCCGCACGTGGAGGG	-0.22 kcal/mol
CTTTTCACGTGTGGAA	0.25 kcal/mol
AGGGCCACGTGGATAG	-0.1 kcal/mol

Sequence	relative binding free energy
TGGTTCACGTGGGATC	0.18 kcal/mol
GGTGGCACGTGTGGCC	0.01 kcal/mol
GGTGACACGTGGTCGG	0.02 kcal/mol
ATTAGCACGTGGGGTG	-0.28 kcal/mol
GGGGGCACGTGGGTTC	-0.2 kcal/mol
GCGTACACGTGGGGCG	-0.22 kcal/mol
CGGTTCACGTGGCTGG	0.22 kcal/mol
TTTGGCACGTGACGGG	0.07 kcal/mol
TTTTTCACGTGTGGAA	0.27 kcal/mol
CAGTGCACGTGTAGTG	0.01 kcal/mol
TATGTCACGTGAGGCA	0.21 kcal/mol
GTGCTCACGTGTTGGT	0.32 kcal/mol
TTCAACACGTGGGGTT	-0.01 kcal/mol
AATGTCACGTGTAAGA	0.15 kcal/mol
TACTACACGTGGTGCG	0.26 kcal/mol
TATGTCACGTGTCTTA	0.08 kcal/mol
TTTAACACGTGTGCTT	-0.08 kcal/mol
AAGTTCACGTGCCGGT	0.22 kcal/mol
TATTACACGTGTTTTA	0.14 kcal/mol
AATTTCACGTGGCAGG	0.26 kcal/mol
TGATGCACGTGTGTCA	0 kcal/mol
AGGTACACGTGTGGGT	0.07 kcal/mol
CGAGTCACGTGGAATG	0.15 kcal/mol
ACAGGCACGTGGGTGT	-0.33 kcal/mol
TCGTGCACGTGGGCCG	-0.16 kcal/mol
GAGAGCACGTGCGGTG	-0.09 kcal/mol

Sequence	relative binding free energy
CTAGACACGTGGTAGT	-0.12 kcal/mol
GGTTGCACGTGTTAGC	0.17 kcal/mol
ACTGTCACGTGGATGT	0.08 kcal/mol
TGGGCCACGTGGTATA	-0.12 kcal/mol
ATATACACGTGCTGGG	-0.11 kcal/mol
ATTCTCACGTGTTGAG	0.19 kcal/mol
TGGGACACGTGCTGGT	-0.04 kcal/mol
ATAGACACGTGCTGGG	0.03 kcal/mol
TTCATCACGTGATTGT	0.47 kcal/mol
GTGGACACGTGGAATG	0.15 kcal/mol
TTATCCACGTGCGTGT	-0.11 kcal/mol
ACTGACACGTGGGTGT	-0.08 kcal/mol
TCGCTCACGTGGGGCG	0.02 kcal/mol
CTAATCACGTGGGATG	0.08 kcal/mol
CGTTACACGTGTGCTT	0.16 kcal/mol
ATTATCACGTGGCATG	-0.03 kcal/mol
AGAGACACGTGGTGGA	-0.06 kcal/mol
TTTTACACGTGTTATC	0.11 kcal/mol
TGGTCCACGTGTCTGG	0.05 kcal/mol
ATTGTCACGTGCAAGT	0.15 kcal/mol
ATGTGCACGTGATTGT	0.22 kcal/mol
CATGGCACGTGTGTGG	-0.06 kcal/mol
TAGAGCACGTGGTTGA	-0.11 kcal/mol
CTAGGCACGTGAATGG	0.21 kcal/mol
TAAGTCACGTGATCGT	0.2 kcal/mol
GGTTACACGTGGTGAG	0.1 kcal/mol

Sequence	relative binding free energy
TGGTGCACGTGTAGTA	0 kcal/mol
GTGCTCACGTGGAGAA	0.38 kcal/mol
TTCAGCACGTGATGTG	0 kcal/mol
GTTAGCACGTGGGGCT	-0.35 kcal/mol
CGAGACACGTGGTGGT	-0.09 kcal/mol
GGGTGCACGTGAGGAA	0.28 kcal/mol
AGTACCACGTGGTTGT	-0.18 kcal/mol
GCGGGCACGTGTGGAC	0.02 kcal/mol
TATTACACGTGTAGTA	0.04 kcal/mol
GGTTACACGTGAATTT	0.33 kcal/mol
AGGGGCACGTGGCGGT	-0.27 kcal/mol
AAACTCACGTGGGGGT	0.18 kcal/mol
GGGTACACGTGGAACG	0.18 kcal/mol
ATGTGCACGTGGCGGG	-0.15 kcal/mol
GCTTTCACGTGCGGTA	0.27 kcal/mol
GGTGGCACGTGTAGGT	0 kcal/mol
GTTGGCACGTGAACTG	0.12 kcal/mol
GCTTTCACGTGAGGTT	0.44 kcal/mol
CGGAGCACGTGAATGG	0.1 kcal/mol
CAGGTCACGTGCATGT	0.02 kcal/mol
GGGTGCACGTGTAGTC	0.1 kcal/mol
TTATGCACGTGATTAG	0.12 kcal/mol
